Drawing on patent US20060160798A1, “Viral polymerase inhibitors” (Boehringer Ingelheim (Canada) Ltd., priority 2001, published 2006), this text covers EC50 for 41 compounds.

pEC50: −log10 of the molar value.

In one assay the test system is Huh7 cells that stably maintain a subgenomic HCV replicon (S22.3 cell-line). The experiment in a line: Cell based HCV RNA replication assay (S22.3 replicon cells, real-time RT-PCR). The conditions noted are these: Hepatitis C virus, Huh-7, 72 h, S22.3 cells, 72 hours incubation, HCV RNA by RT-PCR. In general terms: In antiviral work, replicon cells carry a viral genome segment that copies itself.
As to `CC(C)N1CCC(NC(=O)c2ccc3c(C4CCCCC4)c(-c4ccoc4)[nH]c3c2)(C(=O)Nc2ccc(/C=C/C(=O)O)cc2)CC1` [Entry 2086], the negative logarithm of the EC50 (pEC50) was more than 6.30.
Take `Cn1c(-c2ccccn2)c(C2CCCCC2)c2ccc(C(=O)NC3(C(=O)Nc4ccc(/C=C/C(=O)O)cc4)CCC3)cc21` [Entry 2090]: the pEC50 is more than 6.30.
Turning to `Cn1c(-c2cccc[n+]2[O-])c(C2CCCCC2)c2ccc(C(=O)NC(C)(C)C(=O)Nc3ccc(/C=C/C(=O)O)cc3)cc21` [Entry 2097], the pEC50 is 5.30 to 6.30.
Same read-out and setting: the same measure for `CN1CC[C@](NC(=O)c2ccc3c(C4CCCCC4)c(-c4ccccn4)n(C)c3c2)(C(=O)Nc2ccc(/C=C/C(=O)O)cc2)C1` [Entry 2118]: more than 6.30.
`CC(C)(NC(=O)c1ccc2c(C3CCCCC3)c(-c3ccccc3)[nH]c2c1)C(=O)Nc1ccc(/C=C/C(=O)O)cc1` [Entry 2058] had a pEC50 of more than 6.30.
In turn, `O=C(N[C@@H](Cc1c[nH]c2ccc(O)cc12)c1cscn1)c1ccc2c(C3CCCCC3)c(-c3ccccc3)[nH]c2c1` [Entry 1001] showed a negative-log EC50 (pEC50) of more than 6.30.
Take `O=C(O)/C=C/c1ccc(NC(=O)C2(NC(=O)c3ccc4c(C5CCCCC5)c(-c5cccs5)[nH]c4c3)CCCC2)cc1` [Entry 2042]: the pEC50 was more than 6.30.
`O=C(O)/C=C/c1ccc(NC(=O)C2(NC(=O)c3ccc4c(C5CCCCC5)c(-c5ccccn5)[nH]c4c3)CCCC2)cc1` [Entry 2033] showed a negative-log EC50 (pEC50) of more than 6.30.
On to `Cn1c(-c2cccs2)c(C2CCCCC2)c2ccc(C(=O)NC(C)(C)C(=O)Nc3ccc(/C=C/C(=O)O)cc3)cc21` [Entry 2066], for which the pEC50 was more than 6.30.
The compound `Cc1cccc(-c2c(C3CCCCC3)c3ccc(C(=O)NC(C)(C)C(=O)Nc4ccc(/C=C/C(=O)O)cc4)cc3n2C)n1` [Entry 2098] gave a pEC50 of more than 6.30.
Compound `CC#CCn1c(C(=O)O)cc2cc(NC(=O)[C@@H](C)NC(=O)c3ccc4c(C5CCCCC5)c(-c5ccoc5)[nH]c4c3)ccc21` [Entry 2014] had a pEC50 of 5.30 to 6.30.
The compound `CC(C)(NC(=O)c1ccc2c(C3CCCCC3)c(-c3ccoc3)[nH]c2c1)C(=O)Nc1ccc(-c2csc(C(N)=O)n2)cc1` [Entry 2024] gave a pEC50 of more than 6.30.
Same read-out and setting: the same measure for `CC(C)(NC(=O)c1ccc2c(C3CCCCC3)c(-c3ccsc3)[nH]c2c1)C(=O)Nc1ccc(/C=C/C(=O)O)cc1` [Entry 2059]: more than 6.30.
Same read-out and setting: the same measure for `Cn1c(-c2cccc(N)n2)c(C2CCCCC2)c2ccc(C(=O)NC(C)(C)C(=O)Nc3ccc(/C=C/C(=O)O)cc3)cc21` [Entry 2096]: more than 6.30; for `Cn1c(-c2ccc(N)nc2)c(C2CCCCC2)c2ccc(C(=O)NC(C)(C)C(=O)Nc3ccc(/C=C/C(=O)O)cc3)cc21` [Entry 2080]: more than 6.30.
Same read-out and setting: the same measure for `Cn1c(-c2ccccn2)c(C2CCCCC2)c2ccc(C(=O)NC(C)(C)C(=O)Nc3ccc(-c4ccc(C(=O)O)o4)cc3)cc21` [Entry 2070]: more than 6.30; for `Cc1c(C(N)=O)sc2ccc(NC(=O)C3(NC(=O)c4ccc5c(C6CCCCC6)c(-c6ccccn6)n(C)c5c4)CCC3)cc12` [Entry 2112]: more than 6.30; for `Cn1c(-c2ccccn2)c(C2CCCCC2)c2ccc(C(=O)NC(C)(C)C(=O)Nc3ccc(/C=C/C(=O)O)cc3)cc21` [Entry 2087]: more than 6.30.

The same assay, now with this note: Hepatitis C virus, Huh-7, Table 6.
With `Cn1c(-c2csc(NCCN3CCCCC3)n2)c(C2CCCC2)c2ccc(C(=O)NC3(C(=O)Nc4ccc(/C=C/C(=O)O)cc4)CCCC3)cc21` [Entry 6093], the pEC50 was more than 6.30.
The compound `Cn1c(-c2csc(NC(=O)CC(C)(C)C)n2)c(C2CCCC2)c2ccc(C(=O)NC3(C(=O)Nc4ccc(/C=C/C(=O)O)cc4)CCC3)cc21` [Entry 6080] had a pEC50 of more than 6.30.
In turn, `Cc1ccc(-c2c(C3CCCC3)c3ccc(C(=O)N[C@@]4(C(=O)Nc5ccc(/C=C/C(=O)O)cc5)CCN(C)C4)cc3n2C)nc1` [Entry 6114] gave a pEC50 of more than 6.30.
Take `Cn1c(-c2csc(NC(=O)C(C)(C)C)n2)c(C2CCCC2)c2ccc(C(=O)NC(C)(C)C(=O)Nc3ccc(/C=C/C(=O)O)cc3)cc21` [Entry 6029]: the pEC50 is more than 6.30.
In the case of `Cn1c(-c2csc(NC(=O)OC3CCCC3)n2)c(C2CCCC2)c2ccc(C(=O)NC(C)(C)C(=O)Nc3ccc(/C=C/C(=O)O)cc3)cc21` [Entry 6030], the pEC50 was more than 6.30.
`Cc1cccc(-c2c(C3CCCC3)c3ccc(C(=O)NC4(C(=O)Nc5ccc(/C=C/C(=O)O)cc5)CCN(C)CC4)cc3n2C)n1` [Entry 6058] had a pEC50 of more than 6.30.
Take `CN(C)CCNc1nc(-c2c(C3CCCC3)c3ccc(C(=O)NC4(C(=O)Nc5ccc(/C=C/C(=O)O)cc5)CCC4)cc3n2C)cs1` [Entry 6082]: the pEC50 is more than 6.30.
In turn, `Cc1cccc(-c2c(C3CCCC3)c3ccc(C(=O)NC4(C(=O)Nc5ccc(/C=C/C(=O)O)cc5)CCCC4)cc3n2C)n1` [Entry 6057] showed a pEC50 of more than 6.30.
In turn, `CC(=O)N1CCCC(NC(=O)c2ccc3c(C4CCCC4)c(-c4ccccn4)n(C)c3c2)(C(=O)Nc2ccc(/C=C/C(=O)O)cc2)C1` (centres unmarked) [Entry 6002] had a pEC50 of more than 6.30.
On the same count and under the same terms, the same measure for `CC(=O)Nc1nc(-c2c(C3CCCC3)c3ccc(C(=O)NC(C)(C)C(=O)Nc4ccc(/C=C/C(=O)O)cc4)cc3n2C)cs1` [Entry 6008]: more than 6.30; for `Cn1c(-c2csc(N3CCCCC3)n2)c(C2CCCC2)c2ccc(C(=O)NC(C)(C)C(=O)Nc3ccc(/C=C/C(=O)O)cc3)cc21` [Entry 6016]: more than 6.30; for `Cn1c(-c2cscn2)c(C2CCCC2)c2ccc(C(=O)NC3(C(=O)Nc4ccc(/C=C/C(=O)O)cc4)CCC3)cc21` [Entry 6070]: more than 6.30.
Turning to `Cn1c(-c2cnccn2)c(C2CCCC2)c2ccc(C(=O)NC3(C(=O)Nc4ccc(/C=C/C(=O)O)cc4)CCCC3)cc21` [Entry 6063], the pEC50 was more than 6.30.
The compound `Cn1c(-c2csc(NCCN3CCCCC3)n2)c(C2CCCC2)c2ccc(C(=O)NC(C)(C)C(=O)Nc3ccc(/C=C/C(=O)O)cc3)cc21` [Entry 6023] showed a pEC50 of more than 6.30.

The same assay, now with this note: Hepatitis C virus, Huh-7, Table 7.
Take `Cc1c(C(=O)O)sc2ccc(NC(=O)C3(NC(=O)c4ccc5c(C6CCCC6)c(-c6ccccn6)n(C)c5c4)CCC3)cc12` [Entry 7064]: the pEC50 was more than 6.30.
For `Cn1c(C(=O)O)cc2cc(NC(=O)C3(NC(=O)c4ccc5c(C6CCCC6)c(-c6ccccn6)n(C)c5c4)CCC3)ccc21` [Entry 7012], the pEC50 is more than 6.30.
On to `Cc1ccc(-c2c(C3CCCC3)c3ccc(C(=O)NC4(C(=O)Nc5ccc(-c6ccc(C(=O)O)o6)cc5)CCC4)cc3n2C)nc1` [Entry 7028], for which the pEC50 is more than 6.30.
Consider `Cn1c(-c2ccccn2)c(C2CCCC2)c2ccc(C(=O)NC3(C(=O)Nc4ccc(-c5cncnc5)cc4)CCC3)cc21` [Entry 7055], for which the pEC50 is 5.30 to 6.30.
For the compound `Cn1c(-c2ccncc2)c(C2CCCC2)c2ccc(C(=O)NC3(C(=O)Nc4ccc(-c5ccc(C(=O)O)o5)cc4)CCCC3)cc21` [Entry 7041], the pEC50 was more than 6.30.
Same read-out and setting: the same measure for `Cc1ccc(-c2c(C3CCCC3)c3ccc(C(=O)NC4(C(=O)Nc5ccc6c(c5)cc(C(=O)O)n6C)CCC4)cc3n2C)cn1` [Entry 7035]: more than 6.30.
The same measure, in the same setting: as for `C/C(=C\c1ccc(NC(=O)C2(NC(=O)c3ccc4c(C5CCCC5)c(-c5ccc(C)nc5)n(C)c4c3)CCC2)cc1)C(=O)O` [Entry 7034], the figure is more than 6.30.
With `C/C(=C\c1ccc(NC(=O)C2(NC(=O)c3ccc4c(C5CCCC5)c(-c5ccccn5)n(C)c4c3)CCC2)cc1)C(=O)O` [Entry 7011], the pEC50 was more than 6.30.
Regarding `Cn1c(C(=O)O)cc2cc(NC(=O)C3(NC(=O)c4ccc5c(C6CCCC6)c(-c6ccsc6)n(C)c5c4)CCC3)ccc21` [Entry 7054], the pEC50 is more than 6.30.

One may read the pEC50 as the EC50 on a negative log10 scale, so that one unit is a factor of ten. Higher therefore signals a small EC50.
